Paper PMC6140323
No constants are given. Whether binding was seen depends on the method and setting. Binding seen in cells or lysates may run through a third protein. Some binding calls cover weakened binding; strength is not graded here. Tags and fused reporters may be left off the sequences shown.

The chains behind the UniProt entries cited, without tags or fusion partners. Where a name states a change or a piece, a line headed by the entry shows the natural chain unless it says otherwise.
UniProt P42858: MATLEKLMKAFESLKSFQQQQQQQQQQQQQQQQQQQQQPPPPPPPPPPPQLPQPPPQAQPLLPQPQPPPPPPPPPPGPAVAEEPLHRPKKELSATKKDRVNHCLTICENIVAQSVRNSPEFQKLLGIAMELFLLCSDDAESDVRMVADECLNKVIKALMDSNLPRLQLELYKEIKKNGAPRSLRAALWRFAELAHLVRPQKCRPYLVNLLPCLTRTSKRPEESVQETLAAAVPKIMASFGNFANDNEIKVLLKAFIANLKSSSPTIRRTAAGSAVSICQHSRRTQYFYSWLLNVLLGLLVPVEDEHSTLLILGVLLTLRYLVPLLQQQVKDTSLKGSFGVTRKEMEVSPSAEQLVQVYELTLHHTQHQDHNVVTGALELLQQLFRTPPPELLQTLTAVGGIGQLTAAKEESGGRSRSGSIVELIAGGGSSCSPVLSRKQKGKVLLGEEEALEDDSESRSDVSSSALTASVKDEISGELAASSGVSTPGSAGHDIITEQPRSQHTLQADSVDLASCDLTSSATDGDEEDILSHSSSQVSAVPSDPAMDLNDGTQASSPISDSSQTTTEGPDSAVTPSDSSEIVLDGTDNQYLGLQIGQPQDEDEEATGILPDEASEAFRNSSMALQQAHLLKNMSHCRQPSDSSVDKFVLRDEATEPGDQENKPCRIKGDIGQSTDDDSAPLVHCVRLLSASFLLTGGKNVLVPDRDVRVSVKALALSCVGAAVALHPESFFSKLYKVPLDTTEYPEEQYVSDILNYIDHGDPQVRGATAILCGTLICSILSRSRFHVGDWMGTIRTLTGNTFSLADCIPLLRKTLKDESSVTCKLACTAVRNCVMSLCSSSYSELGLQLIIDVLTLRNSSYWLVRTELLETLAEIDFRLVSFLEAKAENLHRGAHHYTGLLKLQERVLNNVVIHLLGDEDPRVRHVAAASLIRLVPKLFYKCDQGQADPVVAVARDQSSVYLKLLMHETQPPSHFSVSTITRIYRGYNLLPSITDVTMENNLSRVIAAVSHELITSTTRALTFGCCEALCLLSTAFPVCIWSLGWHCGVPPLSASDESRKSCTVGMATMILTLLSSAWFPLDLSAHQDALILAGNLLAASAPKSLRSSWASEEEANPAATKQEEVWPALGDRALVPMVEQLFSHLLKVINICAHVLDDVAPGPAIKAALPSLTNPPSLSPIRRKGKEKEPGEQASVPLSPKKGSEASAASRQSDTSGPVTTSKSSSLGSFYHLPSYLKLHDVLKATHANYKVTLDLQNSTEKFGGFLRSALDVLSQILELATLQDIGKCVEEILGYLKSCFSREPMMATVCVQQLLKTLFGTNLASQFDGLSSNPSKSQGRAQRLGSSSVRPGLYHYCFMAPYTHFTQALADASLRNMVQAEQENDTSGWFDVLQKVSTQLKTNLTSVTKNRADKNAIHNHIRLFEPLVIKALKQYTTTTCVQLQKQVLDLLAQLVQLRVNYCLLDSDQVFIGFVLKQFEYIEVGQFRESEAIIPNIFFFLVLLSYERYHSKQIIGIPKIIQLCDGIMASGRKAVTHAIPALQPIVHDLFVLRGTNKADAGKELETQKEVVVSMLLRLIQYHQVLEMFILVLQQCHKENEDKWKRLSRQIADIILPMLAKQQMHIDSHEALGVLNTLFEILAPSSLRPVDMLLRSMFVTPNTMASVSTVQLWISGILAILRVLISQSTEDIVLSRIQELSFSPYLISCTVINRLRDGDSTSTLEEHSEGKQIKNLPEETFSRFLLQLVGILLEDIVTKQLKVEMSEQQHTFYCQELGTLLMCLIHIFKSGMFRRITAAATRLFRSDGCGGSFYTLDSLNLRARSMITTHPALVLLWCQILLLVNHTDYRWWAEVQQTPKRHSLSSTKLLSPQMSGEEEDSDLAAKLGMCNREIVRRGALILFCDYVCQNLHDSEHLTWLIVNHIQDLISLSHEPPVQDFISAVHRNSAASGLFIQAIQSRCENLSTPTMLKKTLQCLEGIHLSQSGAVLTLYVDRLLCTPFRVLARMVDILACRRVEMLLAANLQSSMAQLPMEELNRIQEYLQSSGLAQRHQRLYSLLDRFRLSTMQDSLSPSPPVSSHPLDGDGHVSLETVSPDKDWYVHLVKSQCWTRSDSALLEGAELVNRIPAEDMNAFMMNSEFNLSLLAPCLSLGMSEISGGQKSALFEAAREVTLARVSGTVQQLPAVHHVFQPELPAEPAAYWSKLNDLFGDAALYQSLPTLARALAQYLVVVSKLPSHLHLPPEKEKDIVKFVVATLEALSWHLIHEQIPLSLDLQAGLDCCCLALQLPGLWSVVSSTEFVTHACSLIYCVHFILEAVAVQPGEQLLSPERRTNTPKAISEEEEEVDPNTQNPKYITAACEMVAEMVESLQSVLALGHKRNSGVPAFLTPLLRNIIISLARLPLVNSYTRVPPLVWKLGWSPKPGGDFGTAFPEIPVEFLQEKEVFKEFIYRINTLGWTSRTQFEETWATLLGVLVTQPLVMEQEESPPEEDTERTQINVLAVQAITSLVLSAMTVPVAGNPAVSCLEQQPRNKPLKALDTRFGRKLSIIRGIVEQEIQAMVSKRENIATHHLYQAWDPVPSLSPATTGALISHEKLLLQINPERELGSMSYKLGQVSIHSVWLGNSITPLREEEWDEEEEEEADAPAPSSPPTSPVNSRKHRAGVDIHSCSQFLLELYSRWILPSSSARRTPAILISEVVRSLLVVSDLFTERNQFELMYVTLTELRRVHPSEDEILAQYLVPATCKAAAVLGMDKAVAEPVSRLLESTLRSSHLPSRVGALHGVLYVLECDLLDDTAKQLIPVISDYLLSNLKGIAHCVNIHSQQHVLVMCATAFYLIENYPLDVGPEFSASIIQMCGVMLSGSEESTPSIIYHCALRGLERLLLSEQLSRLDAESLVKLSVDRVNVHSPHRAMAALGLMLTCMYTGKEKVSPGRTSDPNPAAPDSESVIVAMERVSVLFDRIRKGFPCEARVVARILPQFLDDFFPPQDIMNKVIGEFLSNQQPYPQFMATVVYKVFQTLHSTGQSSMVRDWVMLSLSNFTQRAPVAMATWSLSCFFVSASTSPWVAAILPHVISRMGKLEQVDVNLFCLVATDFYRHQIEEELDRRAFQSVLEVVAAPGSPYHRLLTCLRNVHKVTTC

T1: GFP-SNX21 (N-terminal GFP-tagged full-length human sorting nexin-21) (human) (UniProt Q969T3)
T1 sequence: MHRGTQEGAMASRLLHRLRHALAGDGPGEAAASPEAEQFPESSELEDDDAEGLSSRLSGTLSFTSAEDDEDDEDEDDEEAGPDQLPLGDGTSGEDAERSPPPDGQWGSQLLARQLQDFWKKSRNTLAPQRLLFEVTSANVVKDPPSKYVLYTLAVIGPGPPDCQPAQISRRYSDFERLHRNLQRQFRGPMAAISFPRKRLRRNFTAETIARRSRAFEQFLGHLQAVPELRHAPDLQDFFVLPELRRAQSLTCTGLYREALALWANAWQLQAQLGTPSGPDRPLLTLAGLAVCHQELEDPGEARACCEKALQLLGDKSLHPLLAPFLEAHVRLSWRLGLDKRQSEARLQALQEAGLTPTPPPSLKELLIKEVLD

T2: GFP-SNX21(K364E) (human) (UniProt Q969T3)
T2 sequence: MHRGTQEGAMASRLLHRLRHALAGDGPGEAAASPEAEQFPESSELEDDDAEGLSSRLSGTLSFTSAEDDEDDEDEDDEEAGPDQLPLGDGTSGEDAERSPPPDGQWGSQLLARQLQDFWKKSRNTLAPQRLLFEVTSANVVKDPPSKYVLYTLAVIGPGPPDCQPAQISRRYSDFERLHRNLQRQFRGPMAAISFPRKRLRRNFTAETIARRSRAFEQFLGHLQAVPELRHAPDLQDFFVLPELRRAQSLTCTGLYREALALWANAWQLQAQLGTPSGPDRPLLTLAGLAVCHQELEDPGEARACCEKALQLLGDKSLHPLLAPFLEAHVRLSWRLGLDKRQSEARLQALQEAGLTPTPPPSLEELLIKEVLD

T3: GFP-SNX21(1-129) (human) (UniProt Q969T3)
T3 sequence: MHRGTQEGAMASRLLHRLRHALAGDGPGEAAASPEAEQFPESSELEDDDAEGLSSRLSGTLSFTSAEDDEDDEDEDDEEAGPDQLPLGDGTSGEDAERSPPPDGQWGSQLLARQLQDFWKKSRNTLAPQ

T4: GFP-SNX21(D48K, D49K) (human) (UniProt Q969T3)
T4 sequence: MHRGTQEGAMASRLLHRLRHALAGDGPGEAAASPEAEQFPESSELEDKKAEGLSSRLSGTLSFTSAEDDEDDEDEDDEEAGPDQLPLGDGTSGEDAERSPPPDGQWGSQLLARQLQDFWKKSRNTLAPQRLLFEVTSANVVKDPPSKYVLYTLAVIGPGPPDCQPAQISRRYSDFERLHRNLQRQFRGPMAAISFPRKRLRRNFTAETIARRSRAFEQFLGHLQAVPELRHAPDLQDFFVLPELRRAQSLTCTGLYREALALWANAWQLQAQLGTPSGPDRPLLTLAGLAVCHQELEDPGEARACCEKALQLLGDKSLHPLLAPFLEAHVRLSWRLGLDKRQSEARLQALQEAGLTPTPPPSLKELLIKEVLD

T5: GFP-tagged isolated SNX21 PXB domain (residues 273-373) (human) (UniProt Q969T3)
T5 sequence: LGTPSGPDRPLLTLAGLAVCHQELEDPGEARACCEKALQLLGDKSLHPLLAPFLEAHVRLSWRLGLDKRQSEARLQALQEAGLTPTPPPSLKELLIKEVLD

T6: GFP-SNX20 (GFP-tagged full-length sorting nexin-20) (UniProt Q7Z614)
T6 sequence: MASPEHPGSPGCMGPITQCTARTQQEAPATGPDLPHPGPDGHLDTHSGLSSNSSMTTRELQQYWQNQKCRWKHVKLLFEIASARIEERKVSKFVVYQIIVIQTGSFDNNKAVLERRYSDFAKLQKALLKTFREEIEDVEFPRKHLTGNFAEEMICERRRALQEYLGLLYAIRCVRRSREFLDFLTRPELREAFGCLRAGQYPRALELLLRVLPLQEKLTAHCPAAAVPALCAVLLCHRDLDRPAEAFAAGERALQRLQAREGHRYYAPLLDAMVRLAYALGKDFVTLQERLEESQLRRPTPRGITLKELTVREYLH

T7: GFP-SNX21(R171A) (human) (UniProt Q969T3)
T7 sequence: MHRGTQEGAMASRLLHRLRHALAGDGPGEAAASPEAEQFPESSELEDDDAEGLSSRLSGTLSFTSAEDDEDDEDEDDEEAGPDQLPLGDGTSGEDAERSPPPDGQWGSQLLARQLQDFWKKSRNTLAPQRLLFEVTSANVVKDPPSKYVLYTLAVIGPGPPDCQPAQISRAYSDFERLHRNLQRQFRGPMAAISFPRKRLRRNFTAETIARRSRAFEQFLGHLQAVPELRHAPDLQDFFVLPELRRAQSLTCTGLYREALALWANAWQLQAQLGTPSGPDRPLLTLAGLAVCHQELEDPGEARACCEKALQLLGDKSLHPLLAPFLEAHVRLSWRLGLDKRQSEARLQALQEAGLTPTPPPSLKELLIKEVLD

T8: GFP-SNX21(D49K) (human) (UniProt Q969T3)
T8 sequence: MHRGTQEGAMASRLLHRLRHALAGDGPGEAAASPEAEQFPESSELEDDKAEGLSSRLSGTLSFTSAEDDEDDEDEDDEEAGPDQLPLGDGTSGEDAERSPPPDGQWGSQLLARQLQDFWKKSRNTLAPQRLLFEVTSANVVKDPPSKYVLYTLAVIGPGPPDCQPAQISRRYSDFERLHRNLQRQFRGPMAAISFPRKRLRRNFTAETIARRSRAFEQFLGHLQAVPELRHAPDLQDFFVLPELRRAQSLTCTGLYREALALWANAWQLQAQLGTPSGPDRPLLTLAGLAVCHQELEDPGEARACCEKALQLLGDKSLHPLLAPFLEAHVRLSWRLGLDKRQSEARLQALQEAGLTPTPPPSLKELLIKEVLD

B1: septin 2 (SEPT2), endogenous (protein, UniProt Q15019 1-361)
chain: MSKQQPTQFINPETPGYVGFANLPNQVHRKSVKKGFEFTLMVVGESGLGKSTLINSLFLTDLYPERVIPGAAEKIERTVQIEASTVEIEERGVKLRLTVVDTPGYGDAINCRDCFKTIISYIDEQFERYLHDESGLNRRHIIDNRVHCCFYFISPFGHGLKPLDVAFMKAIHNKVNIVPVIAKADTLTLKERERLKKRILDEIEEHNIKIYHLPDAESDEDEDFKEQTRLLKASIPFSVVGSNQLIEAKGKKVRGRLYPWGVVEVENPEHNDFLKLRTMLITHMQDLQEVTQDLHYENFRSERLKRGGRKVENEDMNKDQILLEKEAELRRMQEMIARMQAQMQMQMQGGDGDGGALGHHV
B2: septin 7 (SEPT7), endogenous (protein, UniProt Q16181 1-437)
chain: MSVSARSAAAEERSVNSSTMVAQQKNLEGYVGFANLPNQVYRKSVKRGFEFTLMVVGESGLGKSTLINSLFLTDLYSPEYPGPSHRIKKTVQVEQSKVLIKEGGVQLLLTIVDTPGFGDAVDNSNCWQPVIDYIDSKFEDYLNAESRVNRRQMPDNRVQCCLYFIAPSGHGLKPLDIEFMKRLHEKVNIIPLIAKADTLTPEECQQFKKQIMKEIQEHKIKIYEFPETDDEEENKLVKKIKDRLPLAVVGSNTIIEVNGKRVRGRQYPWGVAEVENGEHCDFTILRNMLIRTHMQDLKDVTNNVHYENYRSRKLAAVTYNGVDNNKNKGQLTKSPLAQMEEERREHVAKMKKMEMEMEQVFEMKVKEKVQKLKDSEAELQRRHEQMKKNLEAQHKELEEKRRQFEDEKANWEAQQRILEQQNSSRTLEKNKKKGKIF
B3: septin 9 (SEPT9), endogenous (protein, UniProt Q9UHD8 1-586)
chain: MKKSYSGGTRTSSGRLRRLGDSSGPALKRSFEVEEVETPNSTPPRRVQTPLLRATVASSTQKFQDLGVKNSEPSARHVDSLSQRSPKASLRRVELSGPKAAEPVSRRTELSIDISSKQVENAGAIGPSRFGLKRAEVLGHKTPEPAPRRTEITIVKPQESAHRRMEPPASKVPEVPTAPATDAAPKRVEIQMPKPAEAPTAPSPAQTLENSEPAPVSQLQSRLEPKPQPPVAEATPRSQEATEAAPSCVGDMADTPRDAGLKQAPASRNEKAPVDFGYVGIDSILEQMRRKAMKQGFEFNIMVVGQSGLGKSTLINTLFKSKISRKSVQPTSEERIPKTIEIKSITHDIEEKGVRMKLTVIDTPGFGDHINNENCWQPIMKFINDQYEKYLQEEVNINRKKRIPDTRVHCCLYFIPATGHSLRPLDIEFMKRLSKVVNIVPVIAKADTLTLEERVHFKQRITADLLSNGIDVYPQKEFDEDSEDRLVNEKFREMIPFAVVGSDHEYQVNGKRILGRKTKWGTIEVENTTHCEFAYLRDLLIRTHMQNIKDITSSIHFEAYRVKRLNEGSSAMANGMEEKEPEAPEM

Legend:
[1] = biological target: T1, GFP-SNX21 (N-terminal GFP-tagged full-length human sorting nexin-21) (human); assay: co-IP; GFP-nanotrap precipitation of GFP-SNX21 co-expressed with Flag-tagged Htt variants in HEK293-T cells; SDS-PAGE and western blot
[2] = biological target: T1, GFP-SNX21 (N-terminal GFP-tagged full-length human sorting nexin-21) (human); assay: co-IP; GFP-nanotrap precipitation of GFP-tagged constructs from transiently transfected HEK293-T lysates (50 mM Tris-HCl pH 7.4, 0.5% NP40), 1 h at 4°C; western blot for endogenous Htt and septins
[3] = biological target: T2, GFP-SNX21(K364E) (human); assay: as above
[4] = biological target: T3, GFP-SNX21(1-129) (human); assay: as above
[5] = biological target: T4, GFP-SNX21(D48K, D49K) (human); assay: as above
[6] = biological target: T5, GFP-tagged isolated SNX21 PXB domain (residues 273-373) (human); assay: as above
[7] = biological target: T6, GFP-SNX20 (GFP-tagged full-length sorting nexin-20); assay: as above
[8] = biological target: T7, GFP-SNX21(R171A) (human); assay: as above
[9] = biological target: T8, GFP-SNX21(D49K) (human); assay: as above

Molecule | binding [1] | binding [2] | binding [3] | binding [4] | binding [5] | binding [6] | binding [7] | binding [8] | binding [9]
FLAG-tagged Htt (1-588aa) (from UniProt P42858 1-588) (domain or fragment) | binds |  |  |  |  |  |  |  | 
FLAG-tagged full-length Htt (from UniProt P42858 1-3142) | binds |  |  |  |  |  |  |  | 
B1 |  | binds | binds | no binding | binds | binds | binds | no binding | binds
B2 |  | binds | binds | no binding | binds | binds | binds | no binding | binds
B3 |  | binds | binds |  |  |  |  |  | 
